Results from the supplement of paper PMC4967469.
By IC50 is meant the dose at which the fit gives 50% viability; a limit (>, <) means that the fit lies beyond the doses tested. AUC sums up the same curve from the lowest dose to the 256-fold higher top dose; the more sensitive the line, the further below 1. For some of these results: Where the top dose is marked as inferred, it was calculated from the reported fits.

How the values were obtained:
Assay in all cases: Viability of human cancer cell lines after 72 h of drug (GDSC screen)
Mitomycin C = compound: CO[C@@]12[C@H](COC(N)=O)C3=C(C(=O)C(C)=C(N)C3=O)N1C[C@@H]1N[C@@H]12 [Mitomycin C]; conditions: top dose 16 µM
Procedure: (§1)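 Human cancer cell lines in 384-well plates, medium with 10% serum, drug for 72 h over a 256-fold dose range (nine 2-fold or five 4-fold steps up to the top dose). Adherent lines were fixed and stained with the nucleic acid dye Syto60, suspension lines read with resazurin; signal relative to control wells, capped at 0 and 100%. One two-parameter sigmoid per drug and line, fitted in a mixed model over all curves with the slope shared within a line.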

Midostaurin = compound: CO[C@@H]1[C@H](N(C)C(=O)c2ccccc2)C[C@H]2O[C@]1(C)n1c3ccccc3c3c4c(c5c6ccccc6n2c5c31)C(=O)NC4 [Midostaurin]; conditions: top dose 0.512 µM; top dose inferred
Procedure: as §1

Bosutinib = compound: COc1cc(Nc2c(C#N)cnc3cc(OCCCN4CCN(C)CC4)c(OC)cc23)c(Cl)cc1Cl [Bosutinib]; conditions: top dose 2 µM
Procedure: as §1

IOX2 = compound: O=C(O)CNC(=O)c1c(O)c2ccccc2n(Cc2ccccc2)c1=O [IOX2]; conditions: top dose 0.1 µM; top dose inferred
Procedure: as §1

NVP-BHG712 = compound: Cc1ccc(C(=O)Nc2cccc(C(F)(F)F)c2)cc1Nc1nc(-c2cccnc2)nc2c1cnn2C [NVP-BHG712]; conditions: top dose 10.24 µM; top dose inferred
Procedure: as §1

| Cell Line | AUC (Mitomycin C) | IC50 (Mitomycin C) [µM] | AUC (Midostaurin) | IC50 (Midostaurin) [µM] | AUC (Bosutinib) | AUC (IOX2) | IC50 (IOX2) [µM] | AUC (NVP-BHG712) | IC50 (NVP-BHG712) [µM] | IC50 (Bosutinib) [µM] |
| --- | --- | --- | --- | --- | --- | --- | --- | --- | --- | --- |
| SW13 (adrenal gland, adherent) | 0.404 | 0.544 | 0.956 | > 0.512 | 0.764 | 0.986 | > 0.1 | 0.988 | > 10.2 | – |
| JHU-022 (head and neck, adherent) | 0.532 | 1.25 | 0.875 | > 0.512 | 0.653 | 0.976 | > 0.1 | 0.982 | > 10.2 | 0.374 |
| MDA-MB-330 (breast, adherent) | 0.513 | 1.09 | 0.975 | > 0.512 | 0.978 | 0.984 | > 0.1 | 0.982 | > 10.2 | > 2 |
| RPMI-2650 (head and neck, adherent) | 0.247 | 0.174 | 0.931 | > 0.512 | 0.939 | 0.972 | > 0.1 | 0.925 | > 10.2 | > 2 |
| A427 (non-small cell lung carcinoma, adherent) | 0.332 | 0.338 | 0.66 | 0.0896 | 0.896 | 0.956 | > 0.1 | 0.92 | > 10.2 | > 2 |
| MDA-MB-361 (breast, adherent) | 0.462 | 0.79 | 0.987 | > 0.512 | 0.93 | 0.987 | > 0.1 | 0.94 | > 10.2 | > 2 |
| COR-L23 (large cell lung carcinoma, adherent) | 0.286 | 0.254 | 0.973 | > 0.512 | 0.916 | 0.972 | > 0.1 | 0.934 | > 10.2 | > 2 |
| KYM-1 (rhabdomyosarcoma, adherent) | 0.087 | < 0.0625 | 0.961 | > 0.512 | 0.99 | 0.988 | > 0.1 | 0.991 | > 10.2 | > 2 |
| Caov-4 (ovary, adherent) | 0.504 | 1.03 | 0.91 | > 0.512 | 0.98 | 0.965 | > 0.1 | 0.948 | > 10.2 | > 2 |
| KMRC-1 (kidney, adherent) | 0.775 | 6.73 | 0.854 | 0.445 | 0.984 | 0.986 | > 0.1 | 0.957 | > 10.2 | > 2 |
| CFPAC-1 (pancreas, adherent) | 0.209 | 0.12 | 0.873 | > 0.512 | 0.983 | 0.98 | > 0.1 | 0.977 | > 10.2 | > 2 |
| KYSE-70 (oesophagus, adherent) | 0.309 | 0.276 | 0.901 | > 0.512 | 0.949 | 0.961 | > 0.1 | 0.987 | > 10.2 | > 2 |
| CHL-1 (melanoma, adherent) | 0.241 | 0.189 | 0.875 | 0.452 | 0.729 | 0.986 | > 0.1 | 0.909 | > 10.2 | 0.536 |
| MC-IXC (neuroblastoma, adherent) | 0.022 | < 0.0625 | 0.758 | 0.137 | 0.991 | 0.996 | > 0.1 | 0.931 | 8.95 | > 2 |
| KON (head and neck, adherent) | 0.081 | < 0.0625 | 0.805 | 0.252 | 0.73 | 0.967 | > 0.1 | 0.987 | > 10.2 | 0.556 |
| SU-DHL-5 (B-cell lymphoma, suspension) | 0.073 | 0.068 | 0.864 | 0.277 | 0.852 | 0.994 | > 0.1 | 0.686 | 1.83 | 0.995 |
| Becker (glioma, adherent) | 0.485 | 0.906 | 0.929 | > 0.512 | 0.958 | 0.968 | > 0.1 | 0.93 | > 10.2 | > 2 |
| YAPC (pancreas, adherent) | 0.689 | 3.9 | 0.981 | > 0.512 | 0.985 | 0.983 | > 0.1 | 0.982 | > 10.2 | > 2 |
| NCI-H2009 (lung adenocarcinoma, adherent) | 0.342 | 0.355 | 0.806 | 0.28 | 0.891 | 0.982 | > 0.1 | 0.9 | > 10.2 | > 2 |
| HCC38 (breast, adherent) | 0.425 | 0.611 | 0.854 | 0.459 | 0.986 | 0.98 | > 0.1 | 0.956 | > 10.2 | > 2 |
| HCC-827 (lung adenocarcinoma, adherent) | 0.689 | 3.68 | 0.834 | 0.405 | 0.421 | 0.983 | > 0.1 | 0.936 | > 10.2 | 0.0734 |
| NCI-H1781 (lung adenocarcinoma, adherent) | 0.072 | < 0.0625 | 0.922 | > 0.512 | 0.987 | 0.988 | > 0.1 | 0.982 | > 10.2 | > 2 |
| SW780 (bladder, adherent) | 0.784 | 7.46 | 0.846 | 0.424 | 0.906 | 0.983 | > 0.1 | 0.975 | > 10.2 | > 2 |
